# The campaign covered roughly 310,000 compounds. About 2,200 (0.71%) showed an effect of 50% or more. Effects have a minus sign here. This is one part of the list.
# Biological target: human ether-à-go-go-related gene (hERG) potassium channel (human, UniProt Q12809)
# Assay: primary screen, population patch clamp on CHO cells stably expressing hERG
# Sequence of human ether-à-go-go-related gene (hERG) potassium channel (Q12809 whole entry, looked up): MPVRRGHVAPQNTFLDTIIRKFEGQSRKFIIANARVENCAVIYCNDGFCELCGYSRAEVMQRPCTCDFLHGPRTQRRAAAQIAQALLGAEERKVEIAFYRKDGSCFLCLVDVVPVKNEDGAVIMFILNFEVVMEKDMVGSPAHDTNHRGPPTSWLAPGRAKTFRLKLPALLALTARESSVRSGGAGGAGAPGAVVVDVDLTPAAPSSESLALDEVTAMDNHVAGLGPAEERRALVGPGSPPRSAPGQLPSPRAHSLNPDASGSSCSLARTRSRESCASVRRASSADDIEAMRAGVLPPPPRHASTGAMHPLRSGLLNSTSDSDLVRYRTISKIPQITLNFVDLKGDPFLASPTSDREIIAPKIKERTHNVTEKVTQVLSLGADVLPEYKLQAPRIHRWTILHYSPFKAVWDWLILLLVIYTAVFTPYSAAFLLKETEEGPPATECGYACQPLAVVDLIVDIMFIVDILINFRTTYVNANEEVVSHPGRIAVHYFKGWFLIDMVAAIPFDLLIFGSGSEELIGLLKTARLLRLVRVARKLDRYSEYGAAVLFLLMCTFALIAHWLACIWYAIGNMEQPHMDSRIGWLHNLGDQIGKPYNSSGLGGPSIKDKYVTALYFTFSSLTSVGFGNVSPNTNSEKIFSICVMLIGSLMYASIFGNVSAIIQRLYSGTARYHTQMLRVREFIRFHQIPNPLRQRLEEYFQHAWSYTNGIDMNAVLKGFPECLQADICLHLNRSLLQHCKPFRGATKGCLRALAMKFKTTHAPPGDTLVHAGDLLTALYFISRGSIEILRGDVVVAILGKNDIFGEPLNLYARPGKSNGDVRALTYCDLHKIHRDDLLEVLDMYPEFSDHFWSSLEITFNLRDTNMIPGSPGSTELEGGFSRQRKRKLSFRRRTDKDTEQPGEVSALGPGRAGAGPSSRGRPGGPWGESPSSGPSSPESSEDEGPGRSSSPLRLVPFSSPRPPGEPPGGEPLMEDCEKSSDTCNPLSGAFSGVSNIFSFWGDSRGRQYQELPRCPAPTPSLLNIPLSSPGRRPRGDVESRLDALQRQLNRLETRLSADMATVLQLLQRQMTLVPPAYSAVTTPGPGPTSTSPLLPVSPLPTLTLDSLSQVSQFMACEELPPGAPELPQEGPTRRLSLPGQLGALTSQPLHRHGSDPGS
row,Structure (SMILES),"hERG current change (%, negative = inhibition) at 1uM"
1,COc1cccc(OC)c1OCCNCCO,19%
2,O=C(NC(=S)Nc1ccccc1Cl)C1CC1,17.1%
3,Cc1cccc(N(C(=O)Nc2ccc(Cl)cc2)C2=NCC(C)S2)n1 (centres unmarked),8.99%
4,COc1cccc(C(=O)Nc2ccc(N3CCCC3)cc2)c1,13.8%
5,Cc1ccc(-n2ncc3c(=O)n(CC(=O)Nc4cccc(Cl)c4)cnc32)cc1C,12%
6,COc1ccccc1OCCNC(=O)c1cccs1,3.03%
7,CCOC(=O)c1c(-n2cnnn2)sc2c1CCCC2,10.1%
8,COc1ccc([N+](=O)[O-])cc1NC(=O)C(C)N1CCCC1 (centres unmarked),17%
9,Cc1cc(C)c2[nH]c(=O)c(C(c3nnnn3CC3CCCO3)N3CCCC(C)C3)cc2c1 (centres unmarked),8.26%
10,Cc1csc(NC(=O)c2cn3ccccc3n2)n1,-1%
11,COc1ccc(C2c3ccc(O)cc3Oc3ncn4nc(-c5ccco5)nc4c32)cc1OC (centres unmarked),13.1%
12,Cc1nnc(SCC(=O)NC2CCC(C)CC2)s1 (centres unmarked),4.9%
13,Cc1ccc(-c2noc(CN(C(=O)CCCCCN3C(=O)c4ccccc4C3=O)C(C)C)n2)cc1,2.48%
14,CCOC(=O)C1(Cc2cccc(OC)c2)CCN(Cc2cccn2-c2nccs2)CC1,-77.7%
15,CC1CN(C(=O)COC(=O)c2ccc(O)cc2)CC(C)O1 (centres unmarked),13.3%
16,Cc1cccc(-c2noc(CNC(=O)Nc3ccc(F)cc3)n2)c1,11.4%
17,O=S(=O)(c1ccc(-c2nnc(SCc3ccccc3)o2)cc1)N1CCCC1,2.46%
18,Nc1nc(NCC2CCCO2)nc(NCC2CCCO2)c1[N+](=O)[O-] (centres unmarked),1.3%
19,O=S1(=O)CCOCCCN1Cc1ccccc1Br,11.2%
20,CC(=O)Nc1c2c(nn1-c1cccc(Cl)c1)CS(=O)C2 (centres unmarked),11.9%
21,CC(=O)OC[C@]1(OC(C)=O)C[C@@]23CC[C@H]4[C@@](C)(CCC[C@@]4(C)C(=O)O)[C@@H]2CC[C@@H]1C3,12.1%
22,Cc1cc(OCC(=O)NC2CCS(=O)(=O)C2)c2c3c(c(=O)oc2c1)CCC3 (centres unmarked),6.44%
23,COc1ccc(CN(C(=O)c2cccc(OC)c2)C2CCS(=O)(=O)C2)cc1 (centres unmarked),5.26%

row,Structure (SMILES),"hERG current change (%, negative = inhibition) at 1uM"
1,CCCCCCCCNC1=CC(=O)CC(C)(C)C1,15.4%
2,O=S(=O)(Nc1ccc(N2CCOCC2)cc1)c1ccc2ccccc2c1,5.12%
3,Cc1ccc(S(=O)(=O)c2cnc3cc(C)nn3c2N)cc1,2.93%
4,Cc1coc2cc3oc(=O)c(Cc4ccccc4)c(C)c3cc12,21.3%
5,Cc1c(C(=O)N2CCc3ccccc3C2)oc2ccc(S(=O)(=O)N3CCCCCC3)cc12,-3.14%
6,CCN(CC)c1ccc2c(C)c(-c3ccc(N)cc3)c(=O)oc2c1,6.42%
7,CCOC(CNc1ncnc2sc(-c3ccccc3)cc12)OCC,15.6%
8,O=C(O)C1C2C=CC(O2)C1C(=O)NCCC1=CCCCC1 (centres unmarked),1.52%
9,C#CCOc1c(Cl)cc(/C=C2/C(=O)ON=C2C)cc1OC,15.4%
10,O=C1c2cccc3c(N4CCCCC4)ccc(c23)C(=O)N1c1ccc(O)cc1,12.7%
11,C(=N\NC(=Nc1ccccc1)c1ccccn1)/c1ccccn1,8.11%
12,Cc1ccc(OCCn2c(SCCO)nc3c(N)ncnc32)cc1,4.54%
13,CCC(C(=O)NCCCN1CCOCC1)n1c2ccccc2c2nc(=O)cc(C)n21 (centres unmarked),7.11%
14,COc1ccc(-c2cc(N)n(S(=O)(=O)c3ccc(F)cc3)n2)cc1OC,16.2%
15,Cc1ccc(NC(=O)CN(C)C(=O)C(C)N2CCN(Cc3ccccc3C)CC2)cc1 (centres unmarked),1.75%
16,CCOc1ccccc1N(C)S(=O)(=O)c1ccc2c(c1)CC(C)N2C(=O)C1CC1 (centres unmarked),7.72%
17,O=C(CSc1ccc(Cl)cc1)NNC(=O)c1cccnc1,4.33%
18,CNC(=S)N1N=C(c2ccc(C)cc2)CC1c1ccc(N(C)C)cc1 (centres unmarked),10.5%
19,CCN1CCN(C(=O)C2CCN(C(=O)c3cc4sccc4n3CC)CC2)CC1,8.39%
20,CC(C)CN(C(=O)COC(=O)c1ccc2c(c1)OCCO2)c1c(N)n(Cc2ccccc2)c(=O)[nH]c1=O,16.1%
21,O=c1c2c3c(sc2[nH]c(=S)n1Cc1ccco1)CCC3,14.4%
22,O=C(NC1CCCC1)c1ccc(Cn2c(=O)[nH]c3ccsc3c2=O)cc1,8.75%
23,O=C(N/N=C/c1ccco1)c1ccc(NC(=O)c2ccc(Cl)cc2)cc1,15.1%

row,Structure (SMILES),"hERG current change (%, negative = inhibition) at 1uM"
1,COc1ccc(-c2cc(=O)oc3c(C)c(OC(=O)c4cccs4)ccc23)cc1,18.2%
2,Fc1ccc(-n2cc(CNCCc3cccnc3)c(-c3ccccc3Cl)n2)cc1,-10%
3,Cc1ccc(Cn2nc(C)c(NC(=O)c3cc(-c4ccco4)on3)c2C)cc1,-0.169%
4,CCCCn1c(N)c(N(CCC(C)C)C(=O)c2cc(Cl)nc3ccccc23)c(=O)[nH]c1=O,5.29%
5,Cc1ccc(/C=N/n2c(C)nc3ccccc3c2=O)o1,10.2%
6,O=C1C=C(c2cccc3c2oc2ccccc23)C[C@@H](c2ccc(F)cc2)C1,-7.31%
7,CC1CCCCC1NC1=NCCCS1 (centres unmarked),14.1%
8,C#CCSc1nnc(-c2c[nH]c3ccccc23)n1C,15.1%
9,CCCC1=C(C(=O)OCC)C(c2ccco2)n2ncnc2N1 (centres unmarked),11%
10,CC1=CCC2C(=O)N(c3cccc(C(=O)NC(C)c4ccccc4)c3)C(=O)C2C1 (centres unmarked),9.7%
11,CCC(C)NC(=O)[C@H](CSCc1ccccc1)N1Cc2ccccc2C1=O (some centres unmarked),-12.2%
12,CCCCn1c(O)c(C(CC)=Nc2ccc(OC)cc2OC)c(=O)[nH]c1=O,4.73%
13,O=C(c1ccccc1)N1CCN(C(=O)c2ccc([N+](=O)[O-])cc2)CC1,-4.32%
14,CN(C)Cc1nc2c(c(=O)[nH]1)C(C)(C)Cc1ccccc1-2,0.776%
15,Cc1sc(N/N=C/c2cccnc2)nc1-c1ccc(Cl)cc1,9.56%
16,CC1CN(S(=O)(=O)c2ccc(C(=O)O)cc2)CC(C)O1 (centres unmarked),13.7%
17,O=C(Nc1cccc2c1CCCC2)c1cc([N+](=O)[O-])ccc1Cl,-0.62%
18,Cc1csc(NC(=O)c2ccc3c(=O)n4c(nc3c2)CCCCC4)n1,-35.7%
19,COc1ccc(C(=O)CN2CCN(c3cc(C)nc4ccccc34)CC2)cc1,-22.1%
20,Cc1ccc2oc(=O)c3cnn(CC(=O)NCCc4ccsc4)c3c2c1,4.49%
21,Fc1ccc(-c2noc(-c3ccc4c(c3)CCO4)n2)cc1,-0.996%
22,Cc1ccc(S(=O)(=O)NCCCNS(=O)(=O)c2ccc(C)cc2)cc1,11%
23,COc1ccccc1CN1CC(C(=O)NCCN2CCNC2=O)CCC1=O (centres unmarked),15.8%

row,Structure (SMILES),"hERG current change (%, negative = inhibition) at 1uM"
1,O=C(Nc1ccccc1)c1cccc(N2C(=O)C3C4C=CC(C4)C3C2=O)c1 (centres unmarked),7.22%
2,CCNS(=O)(=O)c1ccc(NC(=O)Nc2ccc3c(c2)OCO3)cc1,8.21%
3,O=C(CSCC(=O)N1CCCCC1)OCC(=O)c1c[nH]c2ccccc12,-6.9%
4,CCOc1cccc(-c2c(C(=O)N/N=C/c3ccc(C)o3)nnn2-c2nonc2N)c1,13.7%
5,CC(NC(=O)c1nn(C)c(=O)c2ccccc12)c1ccccc1 (centres unmarked),5.09%
6,COc1ccc(N2C(=O)CCC(C(=O)N(C)CCc3ccccn3)C2c2ccc(OC)c(OC)c2)cc1 (centres unmarked),4.18%
7,Cc1ccc2c(c1)c1nnc(SCC(=O)Nc3cccc(Cl)c3C)nc1n2CC(=O)O,15.5%
8,COc1cccc(N(CC(=O)NCCSc2ccc(Cl)cc2)S(C)(=O)=O)c1,-13.1%
9,CCc1ccc(OCC2c3cc(OC)c(OC)cc3CCN2C(=S)NC)cc1 (centres unmarked),4.64%
10,CC1CCN(c2cc(=O)n(C3CCCCC3)c(=O)[nH]2)CC1,12.3%
11,CCOC(=O)Cc1csc(NC(=O)COc2c(C)cccc2C)n1,12.5%
12,Cc1nnc(-c2ccccc2)nc1N1CCOCC1,-0.422%
13,COc1cc(C2C3=C(CCCC3=O)Nc3[nH]n(-c4ccccc4)c(=O)c32)cc(OC)c1OC (centres unmarked),9.61%
14,Cc1nc(NC(=O)C(C)Oc2cccc(Cl)c2)sc1C(=O)N(C)C (centres unmarked),12.3%
15,Cc1cccc(N=C2NC(=O)/C(=C/C=C/c3ccco3)S2)c1C,13.7%
16,CCOC(=O)C1=C(COC(=O)COc2ccc(C(=O)CC)cc2)NC(=O)NC1C (centres unmarked),7.13%
17,Cc1csc(NC(=O)c2cccc(Cn3nc(C)c(Br)c3C)c2)n1,7.2%
18,O=C(N=C1SCC(=O)N1c1ccccc1Cl)c1ccco1,18.4%
19,C=CCNC(=O)c1ccc(CNS(=O)(=O)c2ccc(NC(C)=O)cc2)cc1,17.3%
20,CNS(=O)(=O)c1cccc(C(=O)OCC(=O)c2ccc[nH]2)c1,8.19%

# Source: paper PMC4336329 (PLoS ONE, 2015)
